We go through 56 molecules from article PMC4336329 (PLoS ONE, 2015).

About 2,200 (0.71%) of roughly 310,000 compounds showed an effect of 50% or more. Effects have a minus sign here. The list shows a part of the results.

Chain of human ether-à-go-go-related gene (hERG) potassium channel (Q12809 whole entry, looked up): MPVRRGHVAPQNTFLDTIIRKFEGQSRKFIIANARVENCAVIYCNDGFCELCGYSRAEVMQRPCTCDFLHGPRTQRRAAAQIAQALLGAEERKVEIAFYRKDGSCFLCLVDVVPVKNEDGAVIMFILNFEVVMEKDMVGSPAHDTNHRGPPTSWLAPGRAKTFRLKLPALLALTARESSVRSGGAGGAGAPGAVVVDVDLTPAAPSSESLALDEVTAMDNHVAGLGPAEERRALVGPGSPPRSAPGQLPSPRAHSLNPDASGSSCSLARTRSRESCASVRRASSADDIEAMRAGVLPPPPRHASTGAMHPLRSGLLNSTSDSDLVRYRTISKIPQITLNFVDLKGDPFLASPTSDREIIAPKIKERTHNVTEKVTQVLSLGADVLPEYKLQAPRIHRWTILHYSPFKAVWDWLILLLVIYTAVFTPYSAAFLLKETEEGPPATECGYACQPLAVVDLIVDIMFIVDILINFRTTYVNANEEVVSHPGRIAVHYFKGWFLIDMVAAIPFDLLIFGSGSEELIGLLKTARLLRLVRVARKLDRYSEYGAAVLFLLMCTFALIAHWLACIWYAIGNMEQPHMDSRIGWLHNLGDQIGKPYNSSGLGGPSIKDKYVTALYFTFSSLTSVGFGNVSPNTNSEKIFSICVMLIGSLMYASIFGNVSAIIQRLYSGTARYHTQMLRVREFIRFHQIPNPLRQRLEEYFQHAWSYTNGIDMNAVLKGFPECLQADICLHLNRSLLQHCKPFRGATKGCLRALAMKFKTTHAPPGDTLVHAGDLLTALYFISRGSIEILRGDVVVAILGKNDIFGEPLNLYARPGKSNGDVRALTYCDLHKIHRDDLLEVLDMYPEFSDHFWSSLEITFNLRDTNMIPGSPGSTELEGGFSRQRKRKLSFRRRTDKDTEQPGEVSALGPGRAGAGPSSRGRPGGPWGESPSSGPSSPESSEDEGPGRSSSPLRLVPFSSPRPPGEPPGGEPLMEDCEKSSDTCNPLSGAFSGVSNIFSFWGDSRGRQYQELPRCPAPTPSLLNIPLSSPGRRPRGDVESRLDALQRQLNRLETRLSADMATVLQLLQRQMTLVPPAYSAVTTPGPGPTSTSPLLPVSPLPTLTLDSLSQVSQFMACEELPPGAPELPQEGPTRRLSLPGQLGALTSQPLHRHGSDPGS

This assay concerns the target human ether-à-go-go-related gene (hERG) potassium channel (human, UniProt Q12809). Briefly: primary screen, population patch clamp on CHO cells stably expressing hERG.
Turning to `O=C(N/N=C/c1c(O)n(Cc2ccccc2)c(=O)c2ccccc12)c1cccnc1`, the “hERG current change (%, negative = inhibition) at 1uM” value is 16.1%.

Take `CCCCCOc1ccc(N2C(=O)C3C4C=CC(C3C2=O)N(C)C4=O)cc1` (centres unmarked): the “hERG current change (%, negative = inhibition) at 1uM” value is on record as -11.5%.

As to `O=C(O)Cc1sc(-c2ccccc2Cl)nc1-c1ccccc1`, the “hERG current change (%, negative = inhibition) at 1uM” value is 4.91%.

`Cc1cc2ccccc2c(=O)n1CC(=O)NCC(=O)N1CCN(c2ccccc2F)CC1`: the “hERG current change (%, negative = inhibition) at 1uM” value came out at 9.66%.

As to `COC(=O)c1cc(S(=O)(=O)Nc2cc(OC)cc(OC)c2)cn1C`, the “hERG current change (%, negative = inhibition) at 1uM” value is on record as 6.29%.

As for `CC(n1cnnn1)C12CC3CC(CC(C3)C1)C2` (centres unmarked), the “hERG current change (%, negative = inhibition) at 1uM” value was -0.398%.

In the case of `Nc1nc(SCC(=O)c2ccc([N+](=O)[O-])cc2)n[nH]1`, the “hERG current change (%, negative = inhibition) at 1uM” value worked out at 1.72%.

Turning to `CN(C(=O)COC(=O)C(C)(C)Oc1ccc(Cl)cc1)c1c(N)n(Cc2ccccc2)c(=O)[nH]c1=O`, the “hERG current change (%, negative = inhibition) at 1uM” value came to 16.5%.

As for `COc1cccc(CNCCc2c[nH]c3ccccc23)c1OCc1ccccc1.Cl`, the “hERG current change (%, negative = inhibition) at 1uM” value was -1.56%.

Take `CN(C)/C=C/C(=O)c1c(F)cccc1F`: the “hERG current change (%, negative = inhibition) at 1uM” value came out at 6.68%.

For the molecule `CC(C)c1nc(C#N)c(N2CCOCC2)o1`, the “hERG current change (%, negative = inhibition) at 1uM” value is listed as 10.4%.

On to `Cc1ccc(C2(c3ccccc3)NC(=O)N(CC(=O)NC3CCS(=O)(=O)C3)C2=O)cc1C` (centres unmarked), for which the “hERG current change (%, negative = inhibition) at 1uM” value was 9.38%.

With `CCOC(=O)Cn1nnnc1CN(Cc1ccc(OC)cc1)Cc1cc2cc(CC)ccc2[nH]c1=O`, the “hERG current change (%, negative = inhibition) at 1uM” value was -0.139%.

For the molecule `N#Cc1c(-c2cccc(Cl)c2)[nH]c(=S)[nH]c1=O`, the “hERG current change (%, negative = inhibition) at 1uM” value is 31.3%.

As to `CCOC(=O)c1nc(-c2ccccc2)oc1N1CCOCC1`, the “hERG current change (%, negative = inhibition) at 1uM” value is listed as 4.72%.

On to `N#C/C(=C\Nc1ccc(Cl)cn1)S(=O)(=O)c1ccccc1`, for which the “hERG current change (%, negative = inhibition) at 1uM” value was determined as 7.94%.

As to `CC(C)n1cc(NC(=O)c2cc(-c3ccccc3)on2)cn1`, the “hERG current change (%, negative = inhibition) at 1uM” value is given as -14.5%.

Regarding `COC(=O)c1ccccc1NC(=O)c1ccnn1C`, the “hERG current change (%, negative = inhibition) at 1uM” value was found to be 6.82%.

As to `Cc1nnc(SCC(=O)NCCN2C(=O)CSC2=O)n1-c1ccccc1`, the “hERG current change (%, negative = inhibition) at 1uM” value is 4.74%.

`CCOC(=O)c1c(N)sc(=S)c2c1CCC2`: the “hERG current change (%, negative = inhibition) at 1uM” value came to 4.86%.

As for `COc1ccc(NCc2ccc(OC)c(OC)c2)cc1`, the “hERG current change (%, negative = inhibition) at 1uM” value amounted to 4.25%.

For the molecule `CC(=O)c1ccc(NC(=O)Cn2cnc(S(=O)(=O)N3CCOCC3)c2)cc1`, the “hERG current change (%, negative = inhibition) at 1uM” value is 13.6%.

For `COc1cc2c(cc1OC)CN(CC(O)c1ccccc1)CC2` (centres unmarked), the “hERG current change (%, negative = inhibition) at 1uM” value stood at 12.6%.

As to `S=c1[nH]nc(C2CC2)n1Cc1ccco1`, the “hERG current change (%, negative = inhibition) at 1uM” value is listed as -2.78%.

For `COc1cc(NC(=O)c2cc(C3CC3)on2)c(OC)cc1Cl`, the “hERG current change (%, negative = inhibition) at 1uM” value turned out to be 3.48%.

For `COc1ccc2oc(C(=O)OCC(=O)c3ccc4c(c3)OCCO4)c(C)c2c1`, the “hERG current change (%, negative = inhibition) at 1uM” value stood at 15.5%.

Turning to `COc1ccc(N2CCN(C(=O)c3ccc(CNS(=O)(=O)c4ccc(C)cc4)cc3)CC2)cc1`, the “hERG current change (%, negative = inhibition) at 1uM” value was found to be 12.9%.

As to `COc1ccc(CCN(C)C(=O)CNC(=O)c2ccccc2F)cc1OC`, the “hERG current change (%, negative = inhibition) at 1uM” value worked out at 1.21%.

For the molecule `COC(=O)c1c(NC(=O)C2COc3ccccc3O2)sc2c1CCN(C(C)=O)C2` (centres unmarked), the “hERG current change (%, negative = inhibition) at 1uM” value is -5.47%.

Regarding `O=[N+]([O-])c1ccc(-c2n(-c3ccccn3)c3ccccc3[n+]2-c2ccccn2)cc1.[I-]`, the “hERG current change (%, negative = inhibition) at 1uM” value came to 10.6%.

Take `CCOC(=O)C(CCCCP(=O)(c1ccccc1)c1ccccc1)(NC(C)=O)C(=O)OCC`: the “hERG current change (%, negative = inhibition) at 1uM” value came to 8.58%.

Consider `Cc1cc(C)c2c(c1)N[C@H](c1cccs1)[C@@H]1CCO[C@H]21`, for which the “hERG current change (%, negative = inhibition) at 1uM” value is given as 3.83%.

For `Cn1nc(C(=O)NCc2ccccc2)c2c1-c1ccccc1S(=O)(=O)C2`, the “hERG current change (%, negative = inhibition) at 1uM” value came to 8.09%.

As for `CCc1ccc(N(CC(=O)NCc2ccc(OC)cc2)C(=O)CCC(=O)Nc2ccccn2)cc1`, the “hERG current change (%, negative = inhibition) at 1uM” value is -7.83%.

Consider `CCC(C)N1C(=O)N(c2cccc(Cl)c2)C(C)(O)CC1(C)C` (centres unmarked), for which the “hERG current change (%, negative = inhibition) at 1uM” value stood at 12.3%.

In the case of `O=C(O)c1cccc(C(=O)Nc2cccc(NC(=O)C3CCCO3)c2)c1` (centres unmarked), the “hERG current change (%, negative = inhibition) at 1uM” value was 21%.

As for `O=C(CC1OC(=O)c2ccccc21)Nc1cc(S(=O)(=O)N2CCOCC2)ccc1OCC(F)(F)F` (centres unmarked), the “hERG current change (%, negative = inhibition) at 1uM” value is recorded as -0.757%.

As to `COc1cc2ccccc2cc1C(=O)Nc1ccc(O)cc1`, the “hERG current change (%, negative = inhibition) at 1uM” value is -5.29%.

Regarding `O=C(N/C(=C/c1ccc2c(c1)OCO2)C(=O)N1CCOCC1)c1cccs1`, the “hERG current change (%, negative = inhibition) at 1uM” value came to 9.57%.

For the molecule `CN(Cc1ccccc1)C(=O)CCCn1c(=O)c2cccn2c2cccnc21`, the “hERG current change (%, negative = inhibition) at 1uM” value is recorded as -3.91%.

For the molecule `O=C1CCC/C1=C\Nc1ccc(Cl)c([N+](=O)[O-])c1`, the “hERG current change (%, negative = inhibition) at 1uM” value turned out to be 14.4%.

In the case of `O=C(Cn1cnc2scc(-c3ccc(F)cc3)c2c1=O)N1CCOCC1`, the “hERG current change (%, negative = inhibition) at 1uM” value amounted to 3.83%.

As for `CC(C(=O)Nc1ccc(Br)cc1C(=O)c1ccccc1)N1CCOCC1` (centres unmarked), the “hERG current change (%, negative = inhibition) at 1uM” value is reported as -10.9%.

On to `O=C(c1ccccc1F)N(Cc1ccccc1)C1CCS(=O)(=O)C1` (centres unmarked), for which the “hERG current change (%, negative = inhibition) at 1uM” value was 8.11%.

On to `Cc1ccc(C(C)(C)C)cc1S(=O)(=O)NC(=O)c1ccccc1`, for which the “hERG current change (%, negative = inhibition) at 1uM” value came to 20.3%.

In the case of `COc1cccc(-c2cc(C(=O)Nc3cc(C)nn3-c3ccccc3)no2)c1`, the “hERG current change (%, negative = inhibition) at 1uM” value is 14.4%.

For the molecule `COc1ccc(CC(=O)N/N=C/c2cccn2-c2ccc([N+](=O)[O-])cc2)cc1OC`, the “hERG current change (%, negative = inhibition) at 1uM” value worked out at 18.1%.

On to `Cc1cccc(NC(=O)c2cc(=O)c3ccccc3o2)c1`, for which the “hERG current change (%, negative = inhibition) at 1uM” value turned out to be 17.2%.

Consider `CC(=O)C1=C(O)C(=O)N(Cc2cccnc2)C1c1ccc(O)cc1` (centres unmarked), for which the “hERG current change (%, negative = inhibition) at 1uM” value came out at 7.48%.

As for `O=C(Nc1nc2ccccc2s1)c1cc(-c2ccco2)nc2ccccc12`, the “hERG current change (%, negative = inhibition) at 1uM” value is 7.55%.

For `Cc1[nH]c(=S)[nH]c(=O)c1Cc1ccc(OCC(C)C)cc1`, the “hERG current change (%, negative = inhibition) at 1uM” value was found to be 10%.

For `O=C(Cn1ncc2c3ccccc3n(Cc3ccccc3)c2c1=O)NCc1ccco1`, the “hERG current change (%, negative = inhibition) at 1uM” value was determined as 8.83%.

As for `Cl.O=C(Oc1cccc2cccnc12)c1cccs1`, the “hERG current change (%, negative = inhibition) at 1uM” value came out at 8.98%.

Turning to `Cc1cccc(CSc2nc3c(c(=O)[nH]2)CCCC3)c1`, the “hERG current change (%, negative = inhibition) at 1uM” value is given as 3.71%.

`CCn1cc(C(=O)NCCCOC(C)C)c(=O)c2cc(S(=O)(=O)N3CCOCC3)ccc21`: the “hERG current change (%, negative = inhibition) at 1uM” value came to 15.7%.

For the molecule `CCN(CC)S(=O)(=O)c1ccc(Cl)c(NC(=O)COc2ccc(OC)cc2)c1`, the “hERG current change (%, negative = inhibition) at 1uM” value is 13.8%.
